# According to US20240247069A1, “FGFR3 BINDING MOLECULES AND METHODS OF USE THEREOF” (Regeneron Pharmaceuticals, Inc., priority 2023, published 2024):
# B1: mAb063: parental anti-FGFR3 antibody; anchor or additional arm; parent of BiP063N2 (antibody)
# heavy: QVQLQESGPGLVKPSETLSLTCTVSGDSINSYFWSWIRQLPGKELEWIGHIYSSGSTRYNPSLQSRVTISIDTSKNQFSLKLSSVTAADTAVYYCARGASAVDYWGQGTLVTVSSASTKGPSVFPLAPCSRSTSESTAALGCLVKDYFPEPVTVSWNSGALTSGVHTFPAVLQSSGLYSLSSVVTVPSSSLGTKTYTCNVDHKPSNTKVDKRV[human IgG4 Fc with S228P (EU numbers) cut from this listing]
# light: EIVLTQSPGTLSLSPGERATLSCRTSQSISSGYLAWYQQKPGQAPRLLIYGASRRATGIPDRFSGSGSGTDFTLTISRLEPEDFVVYYCQQYGSSPYTFGQGTKLEIKRTVAAPSVFIFPPSDEQLKSGTASVVCLLNNFYPREAKVQWKVDNALQSGNSQESVTEQDSKDSTYSLSSTLTLSKADYEKHKVYACEVTHQGLSSPVTKSFNRGEC
# Key:
# mfFGFR3b (mmh) = test: Biacore binding to monkey FGFR3b; conditions: unit inferred
# Protocol: Affinity and mechanism of action of binding of anti-FGFR3 antibodies to FGFR3 isoforms were determined by Biacore analysis. In brief, in-house generated monoclonal anti-human Fc antibody was immobilized on the surface of a CM-5 sensor chip. Different concentrations of FGFR3 antibodies were injected at 50 μL/min for 4 min and the assay was performed at 25° C. The mAb binding response was monitored and, for low affinity receptors, steady-state binding equilibrium was calculated. Kinetic association (ka) and dissociation (kd) rate constants were determined by processing and fitting the data to a 1:1 binding model using Scrubber 2.0 curve fitting software. Binding dissociation equilibrium constants (KD) and dissociative half-lives (t1/2) were calculated from the kinetic rate constants using the formula: KD (M)=kd/ka; and t1/2 (min)=(ln2/(60*kd). Some KD values were derived using the steady state equilibrium dissociation constant; When no KD values could be derived, it was marked as NB (no binding observed) or IC (inconclusive affinity determination due to low specific RU signal).
# [1] = test system: BaF3 cells expressing FGFR3 S249C+V557M; test: BaF3 cell proliferation, FGFR3 S249C+V557M; format: cell-based; conditions: FGF1/heparin, 72 hours
# Excerpt: (§1) cDNA expressing FGFR3 mutants (S249C, S248C, Y375C, V555M, V555L, S249C+V555M, or S249C+V555L) were synthesized and cloned into pLVX Lenti-viral vector (Thermo Fisher). Viral particles were generated by lipofectamine transfection of LentiX 293T cells using Lenti-X packaging single shots following manufacturer's protocol (Clontech/Takara) and concentrated using Lenti-X concentrator and titer determined using Lenti-X p24 rapid titer kit (Clontech/Takara). BaF3 cells were transduced with virus at ˜0.3 MOI.
# (§2) For cell proliferation assays, engineered BaF3/hFGFR3 cells grown in complete medium were washed and plated in IL-3-free culture media±5 μg/ml heparin and 1 nM human FGF1. Cells were plated out at 1×10^5 cells/well into 96-well plates, followed by the addition of 1:3 serially diluted antibodies as indicated in figures. After addition of antibodies, cells were incubated at 37° C. for 72 h followed by the addition of CellTiter-Glo™ (Promega) reagent. The luminescent signal was detected by Envision plate reader (PerkinElmer). Data was analyzed using Prism software (GraphPad). […]
# [2] = test system: BaF3 cells expressing FGFR3 S249C; test: BaF3 cell proliferation, FGFR3 S249C; format: cell-based; conditions: 72 hours
# Excerpt: as §1, with “MOI. Expression of FGFR3 receptors was confirmed by FACS analysis and western blot.” for “MOI.”
# (§3) For cell proliferation assays, engineered BaF3/hFGFR3 cells grown in complete medium were washed and plated in IL-3-free culture media±5 μg/ml heparin and 1 nM human FGF1. Cells were plated out at 1×10^5 cells/well into 96-well plates, followed by the addition of 1:3 serially diluted antibodies as indicated in figures. After addition of antibodies, cells were incubated at 37° C. for 72 h followed by the addition of CellTiter-Glo™ (Promega) reagent. The luminescent signal was detected by Envision plate reader (PerkinElmer). Data was analyzed using Prism software (GraphPad).
# Heparin has been implicated in disulfide formation between FGFR3 S249C monomers. […] The levels of phospho-MAPK (pMAPK) and total MAPK were determined by western blot as described in Section 8.1.5.
# FGFR3 = test: Agonist activity of parental anti-FGFR3 antibodies (Table 1); format: cell-based
# [3] = test system: UMUC14 tumors (FGFR3 S249C); test: In vivo tumor growth inhibition, UMUC14 xenograft; parameters: species or system mouse
# Excerpt: Tumor cells (5×10^6 UMUC14 or RT112 in 50% Matrigel) were implanted subcutaneously (s.c.) into the right flank of 6 to 8-week-old female SCID mice (Jackson Laboratory). Once tumors were established (˜200 mm^3 in volume), mice were randomized into treatment groups (n=10 mice per group) and injected intraperitoneally (i.p.) twice per week with anti-FGFR3 antibodies or isotype control at indicated doses. Tumor volume was expressed in mm^3 using the formula: V=0.5×a×b^2 where a and b were the long and short diameters of the tumor, respectively. Tumor sizes were monitored twice weekly. All procedures were conducted according to the guidelines of the Regeneron Institutional Animal Care and Use Committee. All data were analyzed using GraphPad Prism and tumor sizes were graphed as mean±SEM.
# [4] = test system: BaF3 cells expressing FGFR3 S249C+V557L; test: BaF3 cell proliferation, FGFR3 S249C+V557L; format: cell-based; conditions: FGF1/heparin, 72 hours
# Excerpt: as §1, §2
# [5] = test system: BaF3 cells expressing S248C hFGFR3b; test: BaF3 cell viability, S248C hFGFR3b; format: cell-based; conditions: 1 nM FGF1, 5 μg/ml heparin
# Excerpt: as §1, with “MOI. Expression of FGFR3 receptors was confirmed by FACS analysis and western blot.” for “MOI.”
# as §3
# Next, cell viability was assessed using BaF3 cells expressing S248C hFGFR3b, cultured in a medium with 1 nM FGF1 and 5 μg/ml heparin in the absence (control) or presence of mAb063 or BiP063N2 as described in Section 8.1.4.
# [6] = test system: RT4 bladder cancer cells (FGFR3-TACC3 fusion); test: RT4 spheroid proliferation assay (CellTiter-Glo 3D); format: cell-based, human
# Protocol: Two human bladder cancer cell lines, UMUC14 (Sigma-Aldrich) and RT4 (ATCC), which express an S249C mutation of FGFR3 or express TACC3-FGFR3 fusion mutation, respectively, were maintained in culture according to the suppliers' recommendations.
# 7500 UMUC14 or 5000 RT4 bladder cancer cells were seeded in U-bottom low attachment 96-well spheroid plate (Corning) in culture medium (MEM medium with 10% FBS, 1% non-essential amino acids, Pen/Strep). Cells were cultured for 24-48 hours at 37° C. 5% CO2 to allow tumor spheroid formation. Tumor spheroids were treated with antibodies at concentrations ranging from 100 nM to 15.2 pM with 1:3 serial dilution as indicated in the figures. Cells were cultured for 5-6 days, and then subjected to CellTiter-Glo 3D viability assays (Promega) following the manufacturer's protocol. Luminescence signal was read on PE Envision plate reader. Cell proliferation was expressed as percentages of untreated controls. Data were analyzed using GraphPad Prism software using three parameter nonlinear curve fit.
molecule,measurement,setting,value
B1,Kd,mfFGFR3b (mmh),2.02 nM
same,effect on growth of BaF3 cells expressing FGFR3 S249C+V557M,[1],robustly inhibited the growth
same,effect on proliferation of hFGF1/heparin treated BaF3 cells,[2],able to inhibit the proliferation
same,Agonist Activity (percent value of the cell),FGFR3,16.1%
same,tumor growth after discontinuation of dosing at day 32,"[3]; BiP063N2 6.65 mg/kg, mAb063 5 mg/kg",sustained tumor growth suppression until day 46
same,effect on UMUC14 tumors,"[3]; mAb063 10 and 3 mg/kg, BiP063N2 13.3 and 4 mg/kg, i.p. twice per week",tumor regression
same,effect on growth of BaF3 cells expressing FGFR3 S249C+V557L,[4],robustly inhibited the growth
same,effect on cell viability relative to control,[5],diminished cell viability in a dose-dependent manner
same,antiproliferative activity in RT4 spheroid proliferation assay,[6]; 5 to 6 days treatment,modest inhibitory activity
same,impact of IgG subclass on activity on RT4 cell proliferation,"[6]; IgG1, IgG2, IgG4s backbones",modest effect on IC50
